Experimental data reported in the supplement of paper PMC4604168 (melanoma cell lines).
Some of the results follow. Repeats are few or missing, and single values can be far off.

What was measured:
Assay in all cases: cell count relative to DMSO control; melanoma cells; higher = more viable cells
Settings in all cases: library dose: standard library concentration; 72 h
G361 = system: G361
IPC-298 = system: IPC-298
IST-MEL1 = system: IST-MEL1
LB2518-MEL = system: LB2518-MEL
LOXIMVI = system: LOXIMVI
MEL-HO = system: MEL-HO
MZ2-MEL = system: MZ2-MEL
MeWo = system: MeWo
RPMI7951 = system: RPMI7951
RVH-421 = system: RVH-421
SkMel28 = system: SkMel28
SkMel2 = system: SkMel2
SkMel30 = system: SkMel30
SkMel5 = system: SkMel5
UACC257 = system: UACC257
UACC62 = system: UACC62
WM115 = system: WM115
WM1716 = system: WM1716
WM3526 = system: WM3526
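Note: cells treated in 1,536-well plates, then fixed and DAPI-stained, with nuclei counted from automated high-throughput microscope images.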

| Structure (SMILES) | cell count (G361) [%] | cell count (IPC-298) [%] | cell count (IST-MEL1) [%] | cell count (LB2518-MEL) [%] | cell count (LOXIMVI) [%] | cell count (MEL-HO) [%] | cell count (MZ2-MEL) [%] | cell count (MeWo) [%] | cell count (RPMI7951) [%] | cell count (RVH-421) [%] | cell count (SkMel28) [%] | cell count (SkMel2) [%] | cell count (SkMel30) [%] | cell count (SkMel5) [%] | cell count (UACC257) [%] | cell count (UACC62) [%] | cell count (WM115) [%] | cell count (WM1716) [%] | cell count (WM3526) [%] |
| --- | --- | --- | --- | --- | --- | --- | --- | --- | --- | --- | --- | --- | --- | --- | --- | --- | --- | --- | --- |
| Cn1c(=O)n(-c2ccc(C(C)(C)C#N)cc2)c2c3cc(-c4cnc5ccccc5c4)ccc3ncc21 + O=C(Oc1ccc([N+](=O)[O-])cc1)N1CCC(C(O)(c2ccc3c(c2)OCO3)c2ccc3c(c2)OCO3)CC1 [JZL184] (first compound 0.02 µM, partner dose 5 µM) | 61.3 | 78.7 | 98.9 | 90.7 | 105 | 84.8 | 76.2 | 58.7 | 68.7 | 86.9 | 37.5 | 60.6 | 55.5 | 67.2 | 88.7 | 55.6 | 78.4 | 60.3 | 75.5 |
| CS(=O)(=O)c1ccc(C(=O)Nc2ccc(Cl)c(-c3ccccn3)c2)c(Cl)c1 [vismodegib] + Cc1cc(SCc2sc(-c3ccc(C(F)(F)F)c(F)c3)nc2C)ccc1OCC(=O)O [GW0742] (first compound 5 µM, partner dose 10 µM) | 93.8 | 108 | 92.6 | 88 | 103 | 94.5 | 109 | 105 | 126 | 109 | 75.5 | 99.6 | 104 | 90.8 | 109 | 86.8 | 100 | 101 | 136 |
| Cc1ccc(Nc2nccc(N(C)c3ccc4c(C)n(C)nc4c3)n2)cc1S(N)(=O)=O [Pazopanib] + Cc1cc(SCc2sc(-c3ccc(C(F)(F)F)c(F)c3)nc2C)ccc1OCC(=O)O [GW0742] (first compound 2 µM, partner dose 10 µM) | 83.5 | 64.1 | 92.3 | 84 | 98.6 | 80.9 | 61.2 | 96.5 | 91.6 | 97.3 | 73.4 | 99.2 | 83.5 | 87.4 | 78.2 | 86.8 | 74.6 | 81 | 83.8 |
| Nc1nc(F)nc2c1ncn2[C@@H]1O[C@H](CO)[C@@H](O)[C@@H]1O [fludarabine] + O=C(Oc1ccc([N+](=O)[O-])cc1)N1CCC(C(O)(c2ccc3c(c2)OCO3)c2ccc3c(c2)OCO3)CC1 [JZL184] (first compound 1 µM, partner dose 5 µM) | 86 | 76.7 | 77.6 | 101 | 95.9 | 75.2 | 110 | 85.8 | 71.9 | 81 | 1.86 | 2.52 | 14.9 | 15.9 | 33.2 | 97.9 | 101 | 84.1 | 26.8 |
| Cc1cn(-c2cc(NC(=O)c3ccc(C)c(Nc4nccc(-c5cccnc5)n4)c3)cc(C(F)(F)F)c2)cn1 [nilotinib] + Cc1cc(SCc2sc(-c3ccc(C(F)(F)F)c(F)c3)nc2C)ccc1OCC(=O)O [GW0742] (first compound 1 µM, partner dose 10 µM) | 76.8 | 94 | 82.6 | 83.8 | 108 | 79.1 | 98.7 | 79.5 | 92.7 | 87.7 | 99.7 | 78.4 | 108 | 90.8 | 109 | 84.2 | 93.2 | 95.9 | 88.7 |
| O=C(/C=C/c1cccnc1)NCCCCC1CCN(C(=O)c2ccccc2)CC1 + O=C(Oc1ccc([N+](=O)[O-])cc1)N1CCC(C(O)(c2ccc3c(c2)OCO3)c2ccc3c(c2)OCO3)CC1 [JZL184] (first compound 0.05 µM, partner dose 5 µM) | 3.33 | 31.6 | 66.6 | 71.8 | 49.4 | 40.2 | 30.1 | 90.6 | 105 | 36.3 | 91.7 | 31.1 | 109 | 90.6 | 92.4 | 92.6 | 69.1 | 79.4 | 87.7 |
| CC[C@]1(O)C[C@H]2CN(CCc3c([nH]c4ccccc34)[C@@](C(=O)OC)(c3cc4c(cc3OC)N(C=O)[C@H]3[C@@](O)(C(=O)OC)[C@H](OC(C)=O)[C@]5(CC)C=CCN6CC[C@]43[C@@H]65)C2)C1 [vincristine] + C/C(O)=C(\C#N)C(=O)Nc1cc(Br)ccc1Br [LFM-A13] (first compound 0.0005 µM, partner dose 10 µM) | 52 | 69.5 | 58.6 | 62 | 49.3 | 79.1 | 40.2 | 18 | 18.3 | 51.5 | 24.7 | 14.2 | 51.5 | 37.1 | 49.3 | 51 | 20.6 | 46.8 | 68.5 |
| COc1ccc(C2=N[C@@H](c3ccc(Cl)cc3)[C@@H](c3ccc(Cl)cc3)N2C(=O)N2CCNC(=O)C2)c(OC(C)C)c1 [Nutlin-3] + C/C(O)=C(\C#N)C(=O)Nc1cc(Br)ccc1Br [LFM-A13] (first compound 0.5 µM, partner dose 10 µM) | 101 | 103 | 97 | 67.2 | 88.4 | 88.5 | 102 | 94.6 | 82.8 | 75.7 | 56.2 | 95.5 | 100 | 92.9 | 89.5 | 61.9 | 88 | 76.6 | 88.1 |
| CC1(C)CCC(c2ccc(Cl)cc2)=C(CN2CCN(c3ccc(C(=O)NS(=O)(=O)c4ccc(N[C@H](CCN5CCOCC5)CSc5ccccc5)c(S(=O)(=O)C(F)(F)F)c4)cc3)CC2)C1 + Cc1cc(SCc2sc(-c3ccc(C(F)(F)F)c(F)c3)nc2C)ccc1OCC(=O)O [GW0742] (first compound 2 µM, partner dose 10 µM) | 72.1 | 85.7 | 74.3 | 74.8 | 39.8 | 57.9 | 88.1 | 75.2 | 43.9 | 61.5 | 79.3 | 70.1 | 76.6 | 63.5 | 34 | 78.5 | 80.7 | 62.4 | 78 |
| Nc1ncn([C@H]2C[C@H](O)[C@@H](CO)O2)c(=O)n1 [decitabine] + Cc1cc(SCc2sc(-c3ccc(C(F)(F)F)c(F)c3)nc2C)ccc1OCC(=O)O [GW0742] (first compound 0.5 µM, partner dose 10 µM) | 88.4 | 68.9 | 77.8 | 85.7 | 91.5 | 84.3 | 80.5 | 60.4 | 57.6 | 89 | 97 | 104 | 98.7 | 98.3 | 102 | 74 | 79.3 | 78.9 | 95.4 |
| C[C@@H](N)c1ccc(C(=O)Nc2ccnc3[nH]ccc23)cc1 + Cc1cc(SCc2sc(-c3ccc(C(F)(F)F)c(F)c3)nc2C)ccc1OCC(=O)O [GW0742] (first compound 2 µM, partner dose 10 µM) | 77.5 | 98.9 | 79 | 88.4 | 74.7 | 73.8 | 69.3 | 48.3 | 61.3 | 48.2 | 87.7 | 78.5 | 61.2 | 46.1 | 67.6 | 78 | 94 | 33.9 | 80.5 |
| CCCCCCCCc1ccc(CCC(N)(CO)CO)cc1 [fingolimod] + Cc1cc(SCc2sc(-c3ccc(C(F)(F)F)c(F)c3)nc2C)ccc1OCC(=O)O [GW0742] (first compound 10 µM, partner dose 10 µM) | 1.23 | 50.5 | 8.78 | 0.166 | 40.7 | 28.7 | 2.7 | 5.03 | 5.49 | 34.4 | 0.384 | 0.401 | 12.7 | 32.6 | 53.8 | 7 | 10.3 | 19.4 | 24.1 |
| CS(=O)(=O)CCNCc1ccc(-c2ccc3ncnc(Nc4ccc(OCc5cccc(F)c5)c(Cl)c4)c3c2)o1 [lapatinib] + O=C(Oc1ccc([N+](=O)[O-])cc1)N1CCC(C(O)(c2ccc3c(c2)OCO3)c2ccc3c(c2)OCO3)CC1 [JZL184] (first compound 4 µM, partner dose 5 µM) | 49.7 | 83.7 | 87.1 | 122 | 86.5 | 76.3 | 64.1 | 66.2 | 40.9 | 80.8 | 64.1 | 81.1 | 88.8 | 68.1 | 95.4 | 41.5 | 101 | 61.6 | 73.6 |
| C[C@]1(O)C[C@@H](c2nc(-c3ccc4ccc(-c5ccccc5)nc4c3)c3c(N)nccn32)C1 + C/C(O)=C(\C#N)C(=O)Nc1cc(Br)ccc1Br [LFM-A13] (first compound 2 µM, partner dose 10 µM) | 76.1 | 74.9 | 82.3 | 73.3 | 77.5 | 78.7 | 76.7 | 62.5 | 67.4 | 89.6 | 60.5 | 66.1 | 74.1 | 67.2 | 90.8 | 53.6 | 79.2 | 104 | 62.7 |
| CCCS(=O)(=O)Nc1ccc(F)c(C(=O)c2c[nH]c3ncc(Cl)cc23)c1F + C/C(O)=C(\C#N)C(=O)Nc1cc(Br)ccc1Br [LFM-A13] (first compound 0.4 µM, partner dose 10 µM) | 69.2 | 89.2 | 93.2 | 105 | 76.1 | 73.4 | 94.7 | 93.4 | 84 | 66.1 | 53.2 | 102 | 98.5 | 78.5 | 99.1 | 53 | 92.8 | 64.2 | 50.1 |
| CC1(C)CCC(c2ccc(Cl)cc2)=C(CN2CCN(c3ccc(C(=O)NS(=O)(=O)c4ccc(N[C@H](CCN5CCOCC5)CSc5ccccc5)c(S(=O)(=O)C(F)(F)F)c4)cc3)CC2)C1 + O=C(Oc1ccc([N+](=O)[O-])cc1)N1CCC(C(O)(c2ccc3c(c2)OCO3)c2ccc3c(c2)OCO3)CC1 [JZL184] (first compound 2 µM, partner dose 5 µM) | 104 | 92.2 | 82.7 | 112 | 49.5 | 74.4 | 90.8 | 102 | 41.9 | 74.8 | 73.4 | 91.5 | 85.8 | 110 | 40.2 | 78 | 79.2 | 55.3 | 107 |
| CCN(CC)CCNC(=O)c1c(C)[nH]c(/C=C2\C(=O)Nc3ccc(F)cc32)c1C [sunitinib] + Cc1cc(SCc2sc(-c3ccc(C(F)(F)F)c(F)c3)nc2C)ccc1OCC(=O)O [GW0742] (first compound 2 µM, partner dose 10 µM) | 86.7 | 73.7 | 84.9 | 77.6 | 111 | 82.9 | 118 | 60.8 | 83.2 | 84.1 | 72.3 | 77.1 | 68.6 | 51.5 | 82.9 | 78 | 81.6 | 99.2 | 73.5 |
| Cn1cnc2c(F)c(Nc3ccc(Br)cc3Cl)c(C(=O)NOCCO)cc21 [selumetinib] + Cc1cc(SCc2sc(-c3ccc(C(F)(F)F)c(F)c3)nc2C)ccc1OCC(=O)O [GW0742] (first compound 0.075 µM, partner dose 10 µM) | 76 | 49.8 | 93.3 | 48.6 | 113 | 83.2 | 61.7 | 76.1 | 105 | 69.9 | 61.4 | 57.2 | 64.2 | 64.3 | 94.5 | 57.1 | 75.2 | 87.3 | 59.4 |
| CS(=O)(=O)CCNCc1ccc(-c2ccc3ncnc(Nc4ccc(OCc5cccc(F)c5)c(Cl)c4)c3c2)o1 [lapatinib] + Cc1cc(SCc2sc(-c3ccc(C(F)(F)F)c(F)c3)nc2C)ccc1OCC(=O)O [GW0742] (first compound 4 µM, partner dose 10 µM) | 61.4 | 92.5 | 89.9 | 103 | 108 | 73.3 | 58.3 | 79 | 51.9 | 98.8 | 86.1 | 84.2 | 108 | 54.7 | 104 | 49.7 | 94.3 | 83.7 | 90.1 |
| Cn1cnc2c(F)c(Nc3ccc(Br)cc3Cl)c(C(=O)NOCCO)cc21 [selumetinib] + O=C(Oc1ccc([N+](=O)[O-])cc1)N1CCC(C(O)(c2ccc3c(c2)OCO3)c2ccc3c(c2)OCO3)CC1 [JZL184] (first compound 0.075 µM, partner dose 5 µM) | 59.1 | 50.2 | 78.1 | 57.1 | 107 | 75.9 | 89.4 | 71.8 | 119 | 43.4 | 59.8 | 38 | 67.1 | 106 | 99.1 | 56 | 84.8 | 107 | 62.6 |
| Cn1sc(=O)n(Cc2ccccc2)c1=O + O=C(Oc1ccc([N+](=O)[O-])cc1)N1CCC(C(O)(c2ccc3c(c2)OCO3)c2ccc3c(c2)OCO3)CC1 [JZL184] (first compound 2 µM, partner dose 5 µM) | 88 | 93.3 | 101 | 136 | 99.3 | 106 | 91.1 | 95.1 | 46.6 | 99.3 | 82.5 | 97.5 | 106 | 96.5 | 95.1 | 79.5 | 79.6 | 82 | 101 |
